# Experimental data taken from PMC7819943, “Rice protein-binding microarrays: a tool to detect cis-acting elements near promoter regions in rice”.
# Some of the results follow.
# Biological target: T1, OsWOX13 (Oryza sativa, UniProt Q5QMM3 1-267)
# T1 sequence: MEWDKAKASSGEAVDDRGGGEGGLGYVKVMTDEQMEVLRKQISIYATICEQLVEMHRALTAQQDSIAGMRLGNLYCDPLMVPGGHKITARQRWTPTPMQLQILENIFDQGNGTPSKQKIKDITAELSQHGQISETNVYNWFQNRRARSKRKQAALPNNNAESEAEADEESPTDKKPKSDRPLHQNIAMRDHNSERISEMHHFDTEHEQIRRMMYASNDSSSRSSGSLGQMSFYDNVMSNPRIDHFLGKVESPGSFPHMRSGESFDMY
# Assay: protein-binding microarray (RPBM); PBS, 2% BSA, 51.3 ng/ul salmon testes DNA, 50 uM zinc acetate, 200 nM TF, 25 C, 1 h; high values mean tight binding
# Settings: protein: recombinant; tags: N-terminal polyhistidine and DsRed monomer fusion (pET32a); label: CyDye5-dUTP incorporated in the synthesized complementary strand; 3' TTTTT single-stranded linker to array surface; dsDNA, one strand shown
# In short: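 A custom Agilent array was converted to double-stranded form by primer extension with Cy5-dUTP and blocked with 2% BSA. Protein at 200 nM in PBS with 2% BSA, salmon testes DNA and 50 µM zinc acetate was applied for 1 h at 25 °C, followed by washing. The proteins were polyhistidine–DsRed N-terminal fusions of transcription factors, expressed in E. coli BL21-CodonPlus and Ni–NTA-purified. The binding signal is per-feature fluorescence intensity (arbitrary units) from an Axon 4000B scanner.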
row,Sequence,binding signal
1,CAGAATGGAGATTGTCAGATATCACCATCTGTAAGCTGTTCGGAGTCACCTAGTGCAG,3510 fluorescence intensity (a.u.)
2,TTTATATTATTTGTCAATCTTATTGTCAACTTATTAATCACGGAGTCACCTAGTGCAG,5140 fluorescence intensity (a.u.)
3,GTAAATCCGTGATTAATTCTATCTAATCAAAACCGTCCTTCGGAGTCACCTAGTGCAG,22300 fluorescence intensity (a.u.)
4,GTTAAATCATCTTATTGTAAATTCATCGATCGAAGTTGTGCGGAGTCACCTAGTGCAG,8390 fluorescence intensity (a.u.)
5,CTACAGCACCATGATTTATTATTTATTATATTGGTGCAATCGGAGTCACCTAGTGCAG,4860 fluorescence intensity (a.u.)
6,AGTCAATAATTATGAAAATTGATGAGTAACACTGCTACTCCGGAGTCACCTAGTGCAG,41000 fluorescence intensity (a.u.)
7,TCCCAGATTGGCGCACCCCGAACATTCTCGAAACACCTTCCGGAGTCACCTAGTGCAG,8530 fluorescence intensity (a.u.)
8,ATAGGATTGATCTCATCTCCCCAGGGCGACGTGGGGATCGCGGAGTCACCTAGTGCAG,9880 fluorescence intensity (a.u.)
9,GTAGATTGGACAAACAAACATTGGGGCTAGTGTATTAGAACGGAGTCACCTAGTGCAG,23700 fluorescence intensity (a.u.)
10,ACTAATTGTACAGTTAGGGGAGAAATCGCGAGACGAATTTCGGAGTCACCTAGTGCAG,4980 fluorescence intensity (a.u.)
11,CAGACTTCAGAACTTGATTGATTATAACTTAGTACTTCATCGGAGTCACCTAGTGCAG,24500 fluorescence intensity (a.u.)
12,AGTTAACATGATTTATGATAATTTTAATGTAAATGGTATACGGAGTCACCTAGTGCAG,16700 fluorescence intensity (a.u.)
13,GTGAAATATGATTGTTTGTACTTTCAGATAAGAGAATTGCCGGAGTCACCTAGTGCAG,18000 fluorescence intensity (a.u.)
14,TGTGACATTATCAAATTATATTTCATGATGAATCTACGTACGGAGTCACCTAGTGCAG,13900 fluorescence intensity (a.u.)
15,TTAATTGGGATGATAGTGTAAATAGATCTGAACACTTTGACGGAGTCACCTAGTGCAG,15900 fluorescence intensity (a.u.)
16,TGTTCTTGTCTGTGATTGATAGCTGTATATGTCTCCCGGACGGAGTCACCTAGTGCAG,38000 fluorescence intensity (a.u.)
17,CTCAATCATCTTCAATCCCCTCTAAACCGAACAAGAACTTCGGAGTCACCTAGTGCAG,11200 fluorescence intensity (a.u.)
18,GTCAAATTTATGGCATTGATAGAGTTTTAGTAGGGGTGTTCGGAGTCACCTAGTGCAG,21000 fluorescence intensity (a.u.)
19,TCATTGAGATTGAGAAGACTCTAGTAGAGTACCTAGGTCGCGGAGTCACCTAGTGCAG,8220 fluorescence intensity (a.u.)
20,ATATATATGTCTAAATTCATTAACATATAAATGAATGTGGCGGAGTCACCTAGTGCAG,3480 fluorescence intensity (a.u.)
21,CCATCGCGGATTGAATCAAGACGGAATAAGTTCACCTAACCGGAGTCACCTAGTGCAG,7520 fluorescence intensity (a.u.)

row,Sequence,binding signal
1,TTGTATGAATGAGCTATTAGATTGGCTATAGATGAATTGGCGGAGTCACCTAGTGCAG,8950 fluorescence intensity (a.u.)
2,GGCCTGTCATCTTCTTCCAATCATCTCATTTCTCTCTTCTCGGAGTCACCTAGTGCAG,11000 fluorescence intensity (a.u.)
3,GTGCAATCACTGAGAAATCAGCTTACCACTGAGTAATCACCGGAGTCACCTAGTGCAG,13500 fluorescence intensity (a.u.)
4,TAATTAGTCTATGATTAGCCATAATTGCTACAGTAACCCACGGAGTCACCTAGTGCAG,21800 fluorescence intensity (a.u.)
5,AAAACTACAAATAATTTGATCAAACTATCACAAAACTACACGGAGTCACCTAGTGCAG,5300 fluorescence intensity (a.u.)
6,ATAGGATTGAAATACTCTAAAATTCCTGTGTTTTCCTCCACGGAGTCACCTAGTGCAG,10800 fluorescence intensity (a.u.)
7,TTACACTACGATTGTACTGTAATTACATCTGTCAAATTTTCGGAGTCACCTAGTGCAG,6320 fluorescence intensity (a.u.)
8,AAACTGATTGTCAGACCGAGAGGGTTAAACAATGTCTGGACGGAGTCACCTAGTGCAG,32600 fluorescence intensity (a.u.)
9,CTAGCCACTTGGTATAATTGACTGAGTCTTGATAAAGCTTCGGAGTCACCTAGTGCAG,7350 fluorescence intensity (a.u.)
10,TAGTTTAATCAATTTCAGATATGAAAAGGGTAATTTCAGGCGGAGTCACCTAGTGCAG,5350 fluorescence intensity (a.u.)
11,TCGACTTCTGATTGATGTCAGTAATGGTGTACCAGTGCTGCGGAGTCACCTAGTGCAG,41200 fluorescence intensity (a.u.)
12,TCGATCCATTTGGCCATTAATTACAGCTGGGATGGATAATCGGAGTCACCTAGTGCAG,4190 fluorescence intensity (a.u.)
13,ATGATGATTGGTTGGTTACGGGCATGTTCAGATTGTAGCCCGGAGTCACCTAGTGCAG,54900 fluorescence intensity (a.u.)
14,CCATGATGATGAGTCATTTTAACAGTCTGCAAGTACTAAACGGAGTCACCTAGTGCAG,8500 fluorescence intensity (a.u.)
15,GTGACTATTCCAATTAGCTACTATCAATGATGTGTATGGACGGAGTCACCTAGTGCAG,23100 fluorescence intensity (a.u.)
16,GGTTTGATTGGTTGGAAACAGAGGGGTTCTACTGCTGCGACGGAGTCACCTAGTGCAG,55700 fluorescence intensity (a.u.)
17,TAAATAATTTATGTTTGATATCTTAAAACAGTGCGTGTTACGGAGTCACCTAGTGCAG,16600 fluorescence intensity (a.u.)
18,AGATTTAATTATAACGAATTCAATGGTGTGATCGAATCGCCGGAGTCACCTAGTGCAG,8330 fluorescence intensity (a.u.)
19,TTTGGTGATTTGAAAACCATCTTTTATGCACTGGTTAGATCGGAGTCACCTAGTGCAG,11500 fluorescence intensity (a.u.)
20,TTGGTAATTTATTTAATAAGTTATAGTTATATGAATGGTCCGGAGTCACCTAGTGCAG,24500 fluorescence intensity (a.u.)
21,CCAGTAATCAAAGTTAACATAACTACTATTAGAATGTACTCGGAGTCACCTAGTGCAG,11100 fluorescence intensity (a.u.)
